# Data from the supplement of paper PMC8728848.
# This is one part of the list.
# B1: PX14375F-bfa-539-21-539 (Bacteroides fragilis) (protein)
# chain: EDFLQKDPPSSPSQSVFWQKKSDFESALAGTYSVMYSGVFSQIMPCLDGLTDNAIVQHSEGTYGWAKTIAQGDLTPNQGGFVTDIYGNCYKGIARVHILMEQLDQYTGSDISADEKKFMLAQCKALRGYFYSWLYQCYKEVPVVTQSLDLNTMYQPKATRAEVLNRVMTDYDEAISELPDKLYSDSQTSGRFTVSAVKALKARILLFDAYDSNGKAISSKMEEVLTLLQSIKGYSLAARVRDNFISEKQLASPEIMFSVRFLRPNLTHSMDLYYGAWAVLDPTRNMVDAFECTDGKPWGESPLTVRPDESILYGNDDALKKAERAKMFMNRDRRLYESVNHSMMANFVDDGFKDEEVQVNESNNKGPTGFSALKYVQPTDVTPGYSTVSDADIVVLRYAHVLLMIAEAENEAHGATTTALNAINEVRTRSGQPAIEAGISQDDLRERIRNEWRIETCFEGLRYFQLKRWKLMDKRVNGVEDPAYPGYIKVYKPAFEFFPIPQSEIDKAGGVLKQDPAYE
# Columns and labels:
# Assay in all cases: glycan array binding signal (z-score within array); higher = stronger binding
# Details in all cases: glycan notation: IUPAC condensed, linker removed
# [1] = target: Gal(b1-4)GlcNAc(b1-3)[Fuc(a1-3)GlcNAc(b1-6)]Gal(b1-4)Glc
# Procedure, shortened: (§1)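 Glycan array binding is given as a within-array Z-score, which can be read as non-binding when negative. The arrays, 3228 of them, came from the Consortium for Functional Glycomics database and were retained only where the protein sequence was available. Z-scores were averaged across arrays of the same protein sequence at different concentrations or buffers and across linkers.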
# [2] = target: Gal(b1-4)GlcNAc(b1-3)[Gal(b1-4)GlcNAc(b1-6)]Gal(b1-4)GlcNAc
# Procedure, shortened: as §1
# [3] = target: Gal(b1-4)GlcNAc(b1-3)[GlcNAc(b1-6)]Gal(b1-4)GlcNAc
# Procedure, shortened: as §1
# [4] = target: Gal(b1-4)GlcNAc(b1-6)Gal(b1-4)GlcNAc
# Procedure, shortened: as §1
# [5] = target: Gal(b1-4)GlcNAc(b1-6)GalNAc
# Procedure, shortened: as §1
# [6] = target: Gal(b1-4)GlcNAc(b1-6)[Gal(b1-3)]GalNAc
# Procedure, shortened: as §1
# [7] = target: Gal(b1-4)GlcNAc(b1-6)[Gal(b1-4)GlcNAc(b1-3)]GalNAc
# Procedure, shortened: as §1
# Gal(b1-4)GlcNAc6P = target: Gal(b1-4)GlcNAc6P
# Procedure, shortened: as §1
# Gal(b1-6)Gal = target: Gal(b1-6)Gal
# Procedure, shortened: as §1
# Gal3S(b1-3)GalNAc = target: Gal3S(b1-3)GalNAc
# Procedure, shortened: as §1
# Gal3S(b1-3)GlcNAc = target: Gal3S(b1-3)GlcNAc
# Procedure, shortened: as §1
# [8] = target: Gal3S(b1-3)[Fuc(a1-4)]GlcNAc
# Procedure, shortened: as §1
# Gal3S(b1-4)Glc = target: Gal3S(b1-4)Glc
# Procedure, shortened: as §1
# Gal3S(b1-4)Glc6S = target: Gal3S(b1-4)Glc6S
# Procedure, shortened: as §1
# Gal3S(b1-4)GlcNAc = target: Gal3S(b1-4)GlcNAc
# Procedure, shortened: as §1
# [9] = target: Gal3S(b1-4)[Fuc(a1-3)]Glc6S
# Procedure, shortened: as §1
# [10] = target: Gal3S(b1-4)[Fuc(a1-3)]GlcNAc
# Procedure, shortened: as §1
# [11] = target: Gal3S(b1-4)[Fuc(a1-3)]GlcNAc6S
# Procedure, shortened: as §1
# Gal3S4S(b1-4)GlcNAc = target: Gal3S4S(b1-4)GlcNAc
# Procedure, shortened: as §1
binder,measurement,setting,value
B1,glycan array binding signal (z-score),[1],-0.049
same,glycan array binding signal (z-score),[2],0.637
same,glycan array binding signal (z-score),[3],-0.433
same,glycan array binding signal (z-score),[4],-0.582
same,glycan array binding signal (z-score),[5],1.01
same,glycan array binding signal (z-score),[6],-0.141
same,glycan array binding signal (z-score),[7],-0.051
same,glycan array binding signal (z-score),Gal(b1-4)GlcNAc6P,-0.705
same,glycan array binding signal (z-score),Gal(b1-6)Gal,-0.171
same,glycan array binding signal (z-score),Gal3S(b1-3)GalNAc,-0.253
same,glycan array binding signal (z-score),Gal3S(b1-3)GlcNAc,-0.578
same,glycan array binding signal (z-score),[8],-0.342
same,glycan array binding signal (z-score),Gal3S(b1-4)Glc,0.219
same,glycan array binding signal (z-score),Gal3S(b1-4)Glc6S,-0.338
same,glycan array binding signal (z-score),Gal3S(b1-4)GlcNAc,-0.507
same,glycan array binding signal (z-score),[9],0.169
same,glycan array binding signal (z-score),[10],0.75
same,glycan array binding signal (z-score),[11],-0.338
same,glycan array binding signal (z-score),Gal3S4S(b1-4)GlcNAc,-0.658
